The other results are listed elsewhere or left out.

This test concerns the target T1, OsWOX13 (Oryza sativa, UniProt Q5QMM3 1-267).
T1 sequence: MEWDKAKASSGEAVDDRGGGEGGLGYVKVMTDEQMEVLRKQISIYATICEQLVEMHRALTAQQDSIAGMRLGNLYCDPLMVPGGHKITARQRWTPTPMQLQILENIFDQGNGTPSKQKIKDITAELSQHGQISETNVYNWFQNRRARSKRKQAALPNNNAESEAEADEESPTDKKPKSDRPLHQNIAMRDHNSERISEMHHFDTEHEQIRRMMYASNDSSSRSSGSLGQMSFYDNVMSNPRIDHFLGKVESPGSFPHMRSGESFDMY
As to the kind of experiment: protein-binding microarray (RPBM); PBS, 2% BSA, 51.3 ng/ul salmon testes DNA, 50 uM zinc acetate, 200 nM TF, 25 C, 1 h; high values mean tight binding. The conditions noted are these: protein: recombinant; tags: N-terminal polyhistidine and DsRed monomer fusion (pET32a); label: CyDye5-dUTP incorporated in the synthesized complementary strand; 3' TTTTT single-stranded linker to array surface; dsDNA, one strand shown. Summed up: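 Transcription factors, each fused N-terminally to a polyhistidine tag and DsRed, were expressed in E. coli BL21-CodonPlus and purified on Ni–NTA. A custom Agilent array was made double-stranded by primer extension with Cy5-dUTP and blocked with 2% BSA. It was incubated with 200 nM protein in PBS, 2% BSA, salmon testes DNA and 50 µM zinc acetate at 25 °C for 1 h, then washed. The binding signal is per-feature fluorescence intensity (arbitrary units) read on an Axon 4000B scanner.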
As for “TAGAGACATATGTTAATTACCTTGTACATGAATTTTATTTCGGAGTCACCTAGTGCAG”, the binding signal is 8060 fluorescence intensity (a.u.).
Turning to “GTAATGCCTCCTGTTAATTTTAATTGGCAAGCATAAGTGGCGGAGTCACCTAGTGCAG”, the binding signal is 12300 fluorescence intensity (a.u.).
Take “TTTCAATCTTACAAAATTTTGGCAATTCAAAATTTGGATACGGAGTCACCTAGTGCAG”: the binding signal was 14800 fluorescence intensity (a.u.).
On to “TAACTAAATTTACAATTCTTAATTATGATAGTTTCAGCCACGGAGTCACCTAGTGCAG”, for which the binding signal is 37700 fluorescence intensity (a.u.).
For the sequence “CCATGAGTTCCTTTCAATCAATGCCTAACTCTCTCTCTCTCGGAGTCACCTAGTGCAG”, the binding signal is 13400 fluorescence intensity (a.u.).
For the sequence “ACATTTAACATCTTTAATTTTCTAAACCGGATAAATAACCCGGAGTCACCTAGTGCAG”, the binding signal was 7000 fluorescence intensity (a.u.).
For “ACTGCTAATTAACCCTCTATAAATGCATGCCTCTCACCACCGGAGTCACCTAGTGCAG”, the binding signal was 30400 fluorescence intensity (a.u.).
On to “CTCTGACTGGGCTTGACATCCTGCTATAGTCAAGCTGAAACGGAGTCACCTAGTGCAG”, for which the binding signal was 9600 fluorescence intensity (a.u.).
The figure for “TTCATGATTAATTAAGTAATAATTAAAATAAAATTTTAAACGGAGTCACCTAGTGCAG” is 22800 fluorescence intensity (a.u.).
For the sequence “TACTTCGTGATTGTTTGATTATATGGAGAAGATTGAAGAACGGAGTCACCTAGTGCAG”, the binding signal was 27900 fluorescence intensity (a.u.).
Turning to “TTCTGGTACATTGACAGTGAATTACACGTTCTATTTATAGCGGAGTCACCTAGTGCAG”, the binding signal was 3700 fluorescence intensity (a.u.).
Take “ACAATTGATTTCGAACTCAATCTCGTCAGTTCCCCTTGATCGGAGTCACCTAGTGCAG”: the binding signal was 39600 fluorescence intensity (a.u.).
The figure for “CGAGATAATTAAAGGATAATAAAATTTGGCGGGGAGAAGCCGGAGTCACCTAGTGCAG” is 19500 fluorescence intensity (a.u.).
As to “GCTTTATGTGATTAAATCATGCTAACAGACCTGAGATATGCGGAGTCACCTAGTGCAG”, the binding signal was 16800 fluorescence intensity (a.u.).
On to “TTAGTGATTTTGACCCAATTTTATCCAACGTTACGGCTGACGGAGTCACCTAGTGCAG”, for which the binding signal was 5500 fluorescence intensity (a.u.).
In the case of “CGGTTTTGAGCTAATTAGACTAATCTTCCATTTGACGGACCGGAGTCACCTAGTGCAG”, the binding signal is 15500 fluorescence intensity (a.u.).
In the case of “CTTTCAATTTGGAGATTCAAAATTAACTCTCAATATCCAGCGGAGTCACCTAGTGCAG”, the binding signal was 4870 fluorescence intensity (a.u.).
As for “CTACACAATGGTGATTGATGCTTTCTGTAGGAAAGGGGACCGGAGTCACCTAGTGCAG”, the binding signal is 15200 fluorescence intensity (a.u.).
Consider “CCTGACAGGTAAGGCCCACATGACAGAGAGATACGTTCCTCGGAGTCACCTAGTGCAG”, for which the binding signal is 28600 fluorescence intensity (a.u.).
Turning to “AGCAAATTTTGCCATGTCACATCGACATCATCCCGGCACGCGGAGTCACCTAGTGCAG”, the binding signal is 4070 fluorescence intensity (a.u.).
“ATTTACCTAATTATAACCATGCCATTACAATTTCACAAATCGGAGTCACCTAGTGCAG”: the binding signal is 3490 fluorescence intensity (a.u.).
In the case of “ATCGCAAGATTGACTCTCCTCACCCATGTGCGAGTGATTTCGGAGTCACCTAGTGCAG”, the binding signal was 11700 fluorescence intensity (a.u.).
Turning to “CTATAACAGGCAATAATGGCAAGCATCTTATAAGAAAATTCGGAGTCACCTAGTGCAG”, the binding signal is 4330 fluorescence intensity (a.u.).
In the case of “CTTGTCAATCTACAGAGAGTCCACGAGTTAGTAGTATGTGCGGAGTCACCTAGTGCAG”, the binding signal is 8690 fluorescence intensity (a.u.).
“ACACTATAAATAGACAAAATACTTGGCTATACCTCTACCTCGGAGTCACCTAGTGCAG”: the binding signal was 7490 fluorescence intensity (a.u.).
Take “AGTGATTAGTGAAGCAAAGGAAGACGACGAGTGACACGAGCGGAGTCACCTAGTGCAG”: the binding signal is 21900 fluorescence intensity (a.u.).
For the sequence “ACCTTTCTTTATTTGCCTCCCTAATTGGATCGATACAAAACGGAGTCACCTAGTGCAG”, the binding signal is 6490 fluorescence intensity (a.u.).
Consider “TAAATTGTCTAATTTCATAGTAGAGTGACATAAAGTGTCCCGGAGTCACCTAGTGCAG”, for which the binding signal is 18600 fluorescence intensity (a.u.).
The result for “ACCCTTTCAATCATCCTCCTCCAGCAGAGCAAGCAGCCAACGGAGTCACCTAGTGCAG” reads 11000 fluorescence intensity (a.u.); that for “TATACTAATTGTAGTACTCATAGAAATACGTATGATGCCGCGGAGTCACCTAGTGCAG”, 8790 fluorescence intensity (a.u.); that for “GAAAAGATTTGATTATTCAAGATCCAACCACTAGGGACAACGGAGTCACCTAGTGCAG”, 8030 fluorescence intensity (a.u.).
Turning to “CGAGAGATAGATTGTTCAATGAGAGTGAAATGAACAAGAGCGGAGTCACCTAGTGCAG”, the binding signal is 6930 fluorescence intensity (a.u.).
Turning to “ATTTACAAATTAATTTACGTTTACAAATATGCCGTTTCGCCGGAGTCACCTAGTGCAG”, the binding signal was 42300 fluorescence intensity (a.u.).
On to “ACAAGATGATTTAACAGGTTATACCAAGTCAAAGTGCCAACGGAGTCACCTAGTGCAG”, for which the binding signal was 19900 fluorescence intensity (a.u.).
With “ATAATGATGTTTCGATCGCTAATTAACCGCTACTACGTATCGGAGTCACCTAGTGCAG”, the binding signal was 7900 fluorescence intensity (a.u.).
As to “TCAAGGGGATTGGATTGTTAGAGATGGAGATTTCAGAGAACGGAGTCACCTAGTGCAG”, the binding signal is 6870 fluorescence intensity (a.u.).
The figure for “GGAGCAATTAAGCTTAAAAGATTCGTCTAACAATTTACACCGGAGTCACCTAGTGCAG” is 4640 fluorescence intensity (a.u.); for “GGCCGCAATTAATTAAGTCAACACGAACCGCAGCCTCCCACGGAGTCACCTAGTGCAG” it is 16500 fluorescence intensity (a.u.); for “AATATGTAATTTGTTTAACACTTTAAATGTGCGTCCATATCGGAGTCACCTAGTGCAG” it is 11300 fluorescence intensity (a.u.).
Take “ACTATAGATTTAGTGCCAATTTAATCACCAAACCATAGCACGGAGTCACCTAGTGCAG”: the binding signal is 7880 fluorescence intensity (a.u.).
“TTCATACAATTATTGGCTATAAGGAAACGACGTGTCCCTACGGAGTCACCTAGTGCAG”: the binding signal is 5160 fluorescence intensity (a.u.).
In the case of “ATAATTAATCCAAATCAATCAAGCTAAGCTACGTCTCCTTCGGAGTCACCTAGTGCAG”, the binding signal was 34600 fluorescence intensity (a.u.).
For the sequence “TAAAACGAGTGACAAATAATTAATTGCTACAGCTTAAAAGCGGAGTCACCTAGTGCAG”, the binding signal is 15600 fluorescence intensity (a.u.).
“CGTGGATTAATTAGTTGGCAAAAGCTAAGTACAAGTCATTCGGAGTCACCTAGTGCAG”: the binding signal was 15300 fluorescence intensity (a.u.).
As for “TCATTTATTAAAATAGACGTAACTTTCTCATACGGACTCGCGGAGTCACCTAGTGCAG”, the binding signal was 3210 fluorescence intensity (a.u.).
Turning to “TGGTGATGATGCGATTTACACAGATGGCGGCGCTGGTGTGCGGAGTCACCTAGTGCAG”, the binding signal is 4240 fluorescence intensity (a.u.).
On to “TAATACCCCTTAATTAATAATACATAGTTGGATGTGGGATCGGAGTCACCTAGTGCAG”, for which the binding signal was 4620 fluorescence intensity (a.u.).
“TCAGATCGATGGTTGATTGCACTGCACTGCAGATGAAAGACGGAGTCACCTAGTGCAG”: the binding signal is 6190 fluorescence intensity (a.u.).
The figure for “TAATTTGTAATTATAGAATCTAAATTAAACTGACTACCAACGGAGTCACCTAGTGCAG” is 11700 fluorescence intensity (a.u.).
Consider “CCCATCTGTCAGTGTGTCAGACTGTCAGTGTGCCGCTCACCGGAGTCACCTAGTGCAG”, for which the binding signal was 3520 fluorescence intensity (a.u.).
Take “TTAGATTAGATAAGATTGGTAGGATGTGATTAGTTGGGGACGGAGTCACCTAGTGCAG”: the binding signal was 30200 fluorescence intensity (a.u.).
Regarding “TTTTATTTAATTCCTGTTGATTTAATTCATTTAGTCATTTCGGAGTCACCTAGTGCAG”, the binding signal is 8970 fluorescence intensity (a.u.).
As for “GAATCCATTAACAGGAACAGAGTTACTGCATCTTCTTTGGCGGAGTCACCTAGTGCAG”, the binding signal was 4430 fluorescence intensity (a.u.).
For “CGCTAATTAGCGATCTTGTCTTAATAACAACTGGATTAATCGGAGTCACCTAGTGCAG”, the binding signal is 38900 fluorescence intensity (a.u.).

Values taken from publication PMC7819943, “Rice protein-binding microarrays: a tool to detect cis-acting elements near promoter regions in rice”.
